In the RNAGym collection of RNA variant scans (doi:10.1073/pnas.2313332121):
This sample is rich in variants without activity.

B1: TPR 5TU (parent)
chain: GGAUCUUCUCGAUCUAACAAAAAAGACAAAUCUGCCACAAAGCUUGAGAGCAUCUUCGGAUGCAGAGGCGGCAGCCUUCGGUGGCGCGAUAGCGCCAACGUUCUCAACUAUGACACGCAAAACGCGUGCUCCGUUGAAUGGAGUUUAUCAUG

Variants of: B1
Experiment: polymerase ribozyme fitness, log enrichment relative to wild type (log ratio); higher = more active; in vitro selection for triplet polymerase activity
Summary of the method: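 PCR was used to build mutant libraries for each subunit of a heterodimeric triplet polymerase ribozyme, which were then transcribed. A single in vitro selection round, in triplicate, used a frozen incubation at −7 °C and recovered extended constructs by gel excision, streptavidin beads and RT-PCR. Fitness is the logarithm of genotype enrichment relative to wild-type enrichment, averaged over replicates with inverse-variance weights. The logarithm is base 2, and after Illumina sequencing only genotypes with ≥10 input reads and ≥1 read per output were kept.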

Row | Variant | polymerase ribozyme fitness (log ratio)
1 | GGAUCUUCUCGAUCUACCAAAAAAGACAAACCUGCCACAAAGCUUGAGAGCAUCUUCGGAUGCAGAGGAGGCCGCCUUCGGUGGCGCGAUAGCGCCAAUGUUCUCAACUAUGACACGCAAAACGCGUGCUCCCUUGAAUGGAGUUUAUCAUG [A17C U31C C69A A73C C99U G133C] | ≤ -4.2
2 | GGAUCUUCUCGAUCUACCAAAAAAGACAAAUCAGCCACAAAGCUUGAAAGCAUCUUCGGAUGCAGAGGCGGCAGCCUUCGGUGGCGCGAUCGCGCCAACGUUCUCAACUAUGACACGCAAAACGCGUGCUCCGUUGAAUGGAGUUUAUCAUG [A17C U33A G48A A91C] | ≤ -4.2
3 | GGAUCUUCUCGAUCUACCAAAAAAGACAAAUCGGCCACAAAGCUUGAGAGCAUCUUCCGAUGCAGAGGCGGCAGCCUUCGGUGGCGCGAUGGCGCCAACGUUCCCAACUAUGACACGCAAAACGCGUGCUCCGUUGAAUGGAGUGUAUCAUG [A17C U33G G58C A91G U104C U145G] | ≤ -4.2
4 | GGAUCUUCUCGAUCUACCAAAAAAGACAAAUCUGCCACAAAGCAUGAGAGCAUCUUCGGAUGCAGAGGCGGCAGCCGUCGGUGGCGUGAUAGCGCCAACGUUCUCAACUAUGACACGCAAAACGCUUGCUCCGUUGAAUGGAGGUUAUCAUG [A17C U44A U77G C87U G126U U144G] | ≤ -4.2
5 | GGAUCUUCUCGAUCUACCAAAAAAGACAAAUCUGCCACAAAGCUAGAGAGCAUGUUCGGAUGCAGAGGCGGCAACCUUCGGUGGCGCGAUCGCGCCAACGUUCUCAACUAUGACACGCAAAACGCGUGCUCCGUUGAAGGGAGUUUAUCAUG [A17C U45A C54G G74A A91C U139G] | ≤ -4.2
6 | GGAUCUUCUCGAUCUACCAAAAAAGACAAAUCUGCCACAAAGCUGGAGAGCAUCUUCGCAUGCAGAGGCGGCAGCCUUCGGUGGCGCGAUUGCGCCAACGUUCGCAACUAUGACACGCAAACCGCGUGCUCCGUUGAAUGGAGUUUAUCAUG [A17C U45G G59C A91U U104G A122C] | ≤ -4.2
7 | GGAUCUUCUCGAUCUACCAAAAAAGACAAAUCUGCCACAAAGCUUGAGAGCAUCCUCGGAUGCAGAGGCGGCAGCCUUCGGUGGCGCCAUCGCGCCAACGUUCUCAACUAUGACACGCAAAACGCGUGCGCCGUUAAAUGGGGUUUAUCAUG [A17C U55C G88C A91C U130G G136A A142G] | ≤ -4.2
8 | GGAUCUUCUCGAUCUACCAAAAAAGACAAAUCUGCCACAAAGCUUGAGAGCAUCGUAGCAUGCAGAGGCGGCAGCCUUCGGUGGAGCGAUAGCGCCAACGUUCUCAACUAUGACGCGCUAAACGCGUGCUCCGUUGAAUGGAGUUUAUCAUG [A17C U55G C57A G59C C85A A115G A119U] | -2.46
9 | GGAUCUUCUCGAUCUACCAAAAAAGACAAAUCUGCCACAAAGCUUGAGAGCAUCUACGGAUGCAGAGGCGGCAGACUUCGGUGUCGAGGUAGCGCCAACGUUCUCAACUAUGACACGCAAAACGCGUGCUCCGUUGAAUGGAGUUUAUCAUG [A17C U56A C75A G84U C87A A89G] | ≤ -4.2
10 | GGAUCUUCUCGAUCUACCAAAAAAGACAAAUCUGCCACAAAGCUUGAGAGCAUCUGCGGAUGCAGAGGCGGCAGCGUUCGGUGGCGCGAUAGCGCCAACGUUCUCAACUAUGACACGCAAAACGCGUGCUCCGUUGAAUGGAGUUUAUCAUG [A17C U56G C76G] | ≤ -4.2
11 | GGAUCUUCUCGAUCUACCAAAAAAGACAAAUCUGCCACAAAGCUUGAGAGCAUCUUCGGAGGCAGAGGCGGGAGCUUUCGGUGGCGGGAUAGCGCCAACGUUCUCAACUAUGACACGCAAAACGCGUGCUCCGUUGAAUGGAGUUUAUCAUG [A17C U61G C72G C76U C87G] | ≤ -4.2
12 | GGAUCUUCUCGAUCUACCAAAAAAGACAAAUCUGCCACAAAGCUUGAGAGCAUCUUCGGAUGCAGAGGCGGCAGCCUUCGGUGGCGCGAAAGGGCCAACGUUCUCAACUAUGACACGCAAAACGCGUGCUCCGUUGAAUGGAGUUUAUCAUG [A17C U90A C93G] | ≤ -4.2
13 | GGAUCUUCUCGAUCUAGCCAAAAAGACAAAUCUGCCACAAAGCUUGAGAGCAUCUUCGGAUGCAGAGGCGGCAGCCUUCCGUGGCGCGAUAACGCCAACGUUCUCAACUAUGACAUGCAAAACGCGUGCUCCGUUCAAUAGAGUUUAUCAUG [A17G A19C G80C G92A C116U G136C G140A] | ≤ -4.2
14 | GGAUCUUCUCGAUCUAGCACAAAAGACAAAUCUGCCACAAAGCCUGAGAGCAUCUUGGCAUGCAGAGGCGGCAGCCUUCGGUGGCGCGAUAGCGCCAAUGUUCUCAACUAUGACACGCAAAACGCGUGAUCCGUUGAAUGGAGUUUAUCAUG [A17G A20C U44C C57G G59C C99U C129A] | ≤ -4.2
15 | GGAUCUUCUCGAUCUAGCAUAAAAGACAAAUCUGCCACAAAGCUUGAGGGCAUCUUCGGGUGCAGAGGCGGCAGCCUUAGGUGGCGCGAUAGUGCCAACGUUCUCAACUAUGACACGCAAAACGCGUGCUCCGUUGAAUGGAGUUUAUCAUU [A17G A20U A49G A60G C79A C93U G152U] | ≤ -4.2
16 | GGAUCUUCUCGAUCUAGCAUAAAAGACAAAUCUGUCACAAAGCUAGCGAGCAUCUUCGGAUGCAGAUGCGGCAGCCUUCGGUGGGGCGAUAGCGCCAACGUUCUCAACUAUGACACGCAAAACGCGGGCUCCGUUGAAUGGAGUUUAUCAUG [A17G A20U C35U U45A A47C G67U C85G U127G] | ≤ -4.2
17 | GGAUCUUCUCGAUCUAGCAACAAAGACAAAUCUGCCACAAAGCUUGAGAGCAUCUUCGGAUGCAGAGGCGGCUGCCUUCGGUGGCGCGAUGGCGCCAACUUUCUCAACUAUGACACGCAAAACGCGUGCUCCGUUGAAUUGGGUUUAUCAUG [A17G A21C A73U A91G G100U G140U A142G] | ≤ -4.2
18 | GGAUCUUCUCGAUCUAGCAAGAAAGACAAAUCUGCCACAAAGCUUGAGAGCUUCUACGGAUGCAGAGGCGGCAGCCUUCGGUGGCGCGAUGGCGCCAACGUUCUCAACUAUGACACGCAAAACGCGUGCUCCGUUGAAUGGAGUUUAUCAUG [A17G A21G A52U U56A A91G] | -4
19 | GGAUCUUCUCGAUCUAGCAAGAAAGACAAAUCUGACACAAAGCUUGAGAGCAUAUUCGGAUGCAGUGGCGGCAGCCUUCGGUGGCGCGAUGGCGCCAACGUCGUCAACUAUGACACGCAAAACGCGUGCUCCGUUGAAUGGACUUUAUCAUG [A17G A21G C35A C54A A66U A91G U102C C103G G143C] | ≤ -4.2
